According to PubChem BioAssay AID2546 (National Center for Advancing Translational Sciences (NCATS), 2010):
Screen size: about 310,000 compounds; about 11,000 (3.5%) were called active. Inconclusive means that the source gave no clear call. Such entries were picked first, then a sample of the others. Calls follow the shape of the dose curve; as a rule, active = well fitted inhibition curve with a large enough effect; inconclusive = small, poorly fitted or top-dose-only effect, or effect the other way; inactive = flat fitted curve, though single readings scatter. Potencies of inconclusive entries are left out as doubtful fits.

Assay: VP16 counterscreen qHTS for inhibitors of ROR gamma transcriptional activity;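 also: Gal4-VP16 expression switched on by copper sulfate through the metallothionein promoter; nearly all actives have a fitted effect of over 50% in size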
Conditions: Drosophila S2 Gal4-VP16 UAS-luciferase, luminescence, 20 h; activity, negative = inhibition: at 53.6 µM (top of the series)
% is scaled to controls: 0 for no effect and ±100 for the full control effect; potency is read from the fitted curve at half-maximal effect; tags tell the direction and shape of the fitted curve.

Structure (SMILES)	Potency	activity, negative = inhibition
COc1cc(C(=S)N2CCOCC2)cc(OC)c1OC(=O)c1ccc([N+](=O)[O-])cc1[N+](=O)[O-]	inconclusive [inhibitor, single point]	
Nc1nc(SCc2ccc(Cl)cc2)ns1	active: 7.08 µM	
CNC(=O)CCc1nc(-c2ccc(C(C)(C)C)cc2)no1	active: 7.08 µM	
COc1ccc(NC(=O)CC2C(=O)N(c3ccc(F)cc3)C(=S)N2NC(=O)c2ccccc2)cc1 (stereo unspecified)	inconclusive [inhibitor, single point]	
Cn1cc(C(=O)N/N=C/c2cccs2)c2ccccc21	inconclusive [inhibitor, single point]	
CC(Oc1ccc2oc3ccccc3c2c1)C(=O)NC12CC3CC(CC(C3)C1)C2 (stereo unspecified)	inconclusive [inhibitor, single point]	
N=C1SC(c2ccccc2)C(=O)N1c1ncc(Cc2ccccc2Cl)s1 (stereo unspecified)	active: 1.26 µM	
Cc1cc(C)n(-c2nc3ccccc3c(=O)n2OCCOc2ccccc2)n1	active: 14.1 µM	
CCc1ccccc1N(CC(=O)NC(C)C)C(=O)CCC(=O)Nc1nccs1		inactive: -10.5%
CCCCCCC(=O)Nc1c(O)c2ccccc2[nH]c1=O		inactive: 3.18%
COc1ccc(CN(C)C(=O)CCl)cc1	inconclusive [activator, single point]	
COC(=O)C1=CN(c2ccc(F)cc2)C=C(C(=O)OC)C1c1cccc([N+](=O)[O-])c1		inactive: 6.1%
CCCCC(=O)NC(c1ccccc1OC)c1ccc2cccnc2c1O (stereo unspecified)	active: 4.47 µM	
CC1CCCCN1C(=S)NC(=O)c1cccs1 (stereo unspecified)	active: 2.82 µM	
COc1cc(CC(NC(C)=O)C(=O)NC2CCN(C(=O)Nc3ccc(C)cc3)CC2)cc(OC)c1 (stereo unspecified)		inactive: -5.46%
COc1cc(/C=N/NC(=S)Nc2cccc(Cl)c2C)ccc1OCC(=O)N1CC(C)OC(C)C1 (stereo unspecified)	active: 2.51 µM	
Nc1ccc(N2CCCCCC2)cc1	inconclusive [inhibitor, single point]	
CC(=O)c1ccc(NC(=O)/C(Cl)=C/c2ccccc2)cc1	inconclusive [inhibitor, single point]	
CCOc1ccc(N2C(=O)CC(NCC#N)C2=O)cc1 (stereo unspecified)	inconclusive [inhibitor, single point]	
CCOc1ccc(OCC)c(S(=O)(=O)NCc2ccccn2)c1	inconclusive [inhibitor, single point]	
Cc1ccc(-c2noc(CCC(=O)Nc3ccc4c(c3)OCO4)n2)cc1	inconclusive [inhibitor, partial curve]	
